Hit rate of the full screen: of about 110,000 compounds, about 230 (0.21%) showed an effect of 50% or more. The list shows a part of the results.
target: DPAP1 (Plasmodium falciparum, UniProt Q8IIJ9); experiment: primary screen, percent inhibition; read by cleavage of a fluorogenic dipeptide substrate; higher = more effect of the substance; parameters: species or system P. falciparum D10 trophozoite lysates; single well
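Further: 30 min substrate incubation versus DMSO and 10 µM JCP410 controls.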

DPAP1, sequence (Q8IIJ9 whole entry, looked up): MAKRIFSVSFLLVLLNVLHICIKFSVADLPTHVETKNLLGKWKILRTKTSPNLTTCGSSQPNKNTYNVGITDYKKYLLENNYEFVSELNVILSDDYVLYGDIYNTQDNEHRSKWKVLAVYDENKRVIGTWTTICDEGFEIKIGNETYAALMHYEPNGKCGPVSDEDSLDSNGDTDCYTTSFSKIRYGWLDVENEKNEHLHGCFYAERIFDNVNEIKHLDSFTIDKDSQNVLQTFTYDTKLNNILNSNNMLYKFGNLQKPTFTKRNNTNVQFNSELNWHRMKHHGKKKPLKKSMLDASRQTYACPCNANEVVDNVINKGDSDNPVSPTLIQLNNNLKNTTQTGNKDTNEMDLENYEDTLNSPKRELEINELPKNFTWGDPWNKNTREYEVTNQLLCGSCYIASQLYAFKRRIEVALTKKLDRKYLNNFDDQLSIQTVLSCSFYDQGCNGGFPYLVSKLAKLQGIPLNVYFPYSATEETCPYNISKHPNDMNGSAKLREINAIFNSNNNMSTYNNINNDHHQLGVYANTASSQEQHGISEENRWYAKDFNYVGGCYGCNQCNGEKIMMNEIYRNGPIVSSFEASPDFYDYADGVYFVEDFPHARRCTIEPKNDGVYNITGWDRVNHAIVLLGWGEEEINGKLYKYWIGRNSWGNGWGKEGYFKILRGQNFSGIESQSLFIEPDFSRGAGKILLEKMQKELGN

SMILES	% Inhibition @ 10 uM [%]
Cc1n(CC(O)COC2CCCCC2)c2ccccc2[n+]1C (stereo not shown)	2.38
O=C(NCCN1CCCCCC1)c1ccc2c(c1)ncn2C1CCCCC1	3.24
Cc1cccc(OCC(=O)Nc2ccc(F)cc2)c1C	0.795
c1nnc2c3c4c(sc3ncn12)CCCC4	7.66
O=C(Nc1ccccc1)C(CCO)Nc1ccccc1 (stereo not shown)	3.98
O=C(c1cc2c(s1)-c1ccccc1OC2)N1CCC(N2CCCCC2)CC1	0.291
CCN1CCN(Cc2ccccc2F)CC1	2.33
O=C(NCc1ccccn1)c1ccc(CNS(=O)(=O)c2cccc(C(F)(F)F)c2)cc1	-4.15
O=C(c1ccccc1Cl)n1nc(-c2ccccc2)nc1NCc1ccco1	-10.8
COc1ccc(N2C(=O)C3C(c4ccccc4C)OC4(C(=O)c5ccccc5C4=O)C3C2=O)cc1OC (stereo not shown)	5.73
COc1ccc(-c2nc3cc(C)ccc3o2)cc1N	-0.294
CCCC(C)NC(=O)c1sc2ccccc2c1Cl (stereo not shown)	2.38
COc1ccc(NC(=O)OCC(F)(F)C(F)F)cc1Cl	-4.87
COc1ccc(Br)cc1CNCc1c(C(=O)O)c(C)n(Cc2ccccc2)c1C	1.63
O=C(Nc1nc(-c2ccccc2)cs1)Nc1ccc(Cl)cc1Cl	-4.35
COC(CNC1CCCc2c1[nH]c1ccc(C)cc21)OC (stereo not shown)	0.708
O=C(O)CCC(=O)N1N=C(c2ccc(Br)cc2)CC1c1ccc(Br)cc1 (stereo not shown)	15.8
O=C(C1CCC(c2ccc(-c3ccccc3)cc2)CC1)N1CCOCC1 (stereo not shown)	0.177
Cc1ccc(C)c(S(=O)(=O)c2nnn3c2nc(NCc2ccco2)c2sccc23)c1	0.304
O=C(/C=C/c1ccccc1)Nc1ccccc1C#Cc1ccccc1	5.68
O=C(CCn1cccc1)NC1CCCc2ccccc21 (stereo not shown)	0.747
COc1ccc(/C=C/C(=O)Nc2nc(-c3ccc(C)cc3)cs2)cc1OC	-1.52

SMILES	% Inhibition @ 10 uM [%]
Cc1ccc(-n2nc3c(=O)n(CC(=O)NC4CCCc5ccccc54)nc(C)c3c2C)cc1 (stereo not shown)	-6.16
N#CCNC(=O)[C@H](CS(=O)(=O)Cc1ccccc1)NC(=O)c1ccc(-c2ccccc2)cc1	-0.214
COc1ccc(CNC(=O)NC2(C(F)(F)F)Oc3ccc(Cl)cc3O2)cc1 (stereo not shown)	-0.363
CCCCC(=O)NC(=O)c1ccccc1O	0.526
Cc1cc2oc3c(c(=O)c2cc1C)C(c1ccc(C(C)C)cc1)N(CCCN(C)C)C3=O (stereo not shown)	-4.78
Cn1c2ccccc2c2nnc(SCCCC(=O)c3ccc4c(c3)OCCO4)nc21	2.62
COc1ccc(CN(C(=O)c2ccc(Cl)cc2)C2CCS(=O)(=O)C2)cc1 (stereo not shown)	0.561
CC(=O)Nc1cccc(N2C(=O)c3cc(Cl)c(Cl)cc3C2=O)c1	-3.78
Cc1cc(O)nc(SCC(=O)NCc2ccc3c(c2)OCO3)n1	2.99
CC1(C)Cc2ccccc2C(CC(=O)N2CCCCCC2)=N1	-5.11
O=c1c2c3c(sc2nc2n1CCCCC2)CCC3	-3.44
NC(=O)CS(=O)(=O)c1nc2ccccc2n1Cc1cccc(F)c1	-1.11
CCC(CCCC1CCNC(=O)N1)CC(=O)O (stereo not shown)	-2.7
CCOCCCNC(=O)CSc1nnc(C)c2c(C)n(-c3ccccc3)nc12	3.25
CN(C)CCO/N=C(\c1ccccc1)c1ccncc1	3.25
Cc1nc2c3ccccc3n(Cc3ccccc3)c2s1	43.9
COc1ccc(C2=NN(/C(C)=C/C(C)=O)C(c3cccc([N+](=O)[O-])c3)C2)cc1 (stereo not shown)	-0.128
CCc1cc2c(cc3c(=O)n(CC(=O)NC(C)c4ccc5c(c4)OCCO5)nc(CC)n32)s1 (stereo not shown)	-1.7
CCCCNc1c(Cl)cnn(-c2ccccc2)c1=O	-3.44
Cc1nnc(N2CCN(C(=O)NC(C)C)CC2)c2nn(-c3ccc(Cl)cc3)c(C)c12	-2.29
COCCn1c(C)cc(C(=O)CSc2nnc3scc(-c4ccc(Cl)cc4)n23)c1C	2.46
O=[N+]([O-])c1cccc(-c2ncnn2-c2ccccc2)c1	-3.6

SMILES	% Inhibition @ 10 uM [%]
CCOc1ccc2nc(C34CC5CC(CC(C5)C3)C4)ccc2c1	-1.32
Cc1c(CNC(C)C23CC4CC(CC(C4)C2)C3)c(C(=O)O)c(C)n1Cc1ccccc1 (stereo not shown)	-3.67
COc1cccc(OCC(O)CN2CCN(c3ccccc3F)CC2)c1 (stereo not shown)	-11.6
COc1ccc(-c2noc(N3CCCC(C(=O)Nc4cccnc4Cl)C3)n2)cc1 (stereo not shown)	0.6
O=C(COc1ccc(-c2ccccc2)cc1)Nc1nccs1	16.1
CCCC1(CCC)C(=O)N=C(NCc2ccccc2)NC1=O	1.02
CC(=O)c1cccc(-n2c(S)nnc2-c2ccc3ccccc3n2)c1	5.31
COc1ccc(CCNC(=O)CSc2nc(O)c3cnn(-c4ccc(F)cc4)c3n2)cc1OC	-6.49
O=C(C1CCCO1)N1CCC(c2c[nH]c3ccccc23)(c2c[nH]c3ccccc23)CC1 (stereo not shown)	-2.37
COCCCNC(=O)c1[nH]c2cc(C)ccc2c1Sc1ccc(Cl)cc1	-8.23
CC(NC(=O)c1ccc(CS(=O)(=O)c2cccc(C(F)(F)F)c2)o1)c1ccc2c(c1)OCCO2 (stereo not shown)	-6.89
COc1cccc(CNC(C)CCc2ccc(O)cc2)c1OC (stereo not shown)	0.217
Cc1ccc2c(c1)/C(=C\CC(=O)O)c1ccccc1CS2	-8.26
CCc1ccccc1NC(=O)C(C)Sc1ccccc1 (stereo not shown)	-0.941
NC(=O)c1c(NC(=O)C2CCCC2)sc2c1CCC2	-3.05
O=C(CC(=O)c1ccccc1)Nc1cc([N+](=O)[O-])ccc1Cl	3.34
COc1ccc(OC)c(C2=NOC(C(=O)NC3CCCC3)C2)c1 (stereo not shown)	-3.94
CC(NC(=O)CCCN1C(=O)CSc2ncccc21)C12CC3CC(CC(C3)C1)C2 (stereo not shown)	-0.637
CCc1c(C#N)c(N)nc2sc(C(=O)OCc3ccccc3)c(N)c12	15.3
CCOC(=O)c1c(NC(=O)c2cc(C)on2)sc2c1CCCC2	0.0221
